From the supplement of paper PMC3334620
In all, about 33,000 sequences were measured (“E-score (-0.5 to 0.5)”: median about -0.053, highest 2% from about 0.37 on). The list shows a part of the results.

Target: Hap1 (UniProt P0CE41)
Experiment: PBM E-score (8-mer binding enrichment) (E-score (-0.5 to 0.5)); higher = stronger / more preferred TF binding; most listed sequences are background and not binding sites
Settings: protein concentration: 200 nM; construct: GST-DNA-binding domain
Procedure, shortened: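 Yeast transcription factors carrying a GST tag, as full-length proteins or DNA-binding domains, were produced by PURExpress in vitro transcription/translation. About 100-200 nM protein was applied to universal all-10-mer Agilent arrays, double-stranded by primer extension on fresh or once-stripped slides. Bound protein was detected with fluorescent anti-GST, and scans were normalised with masliner. The Universal PBM Analysis Suite gave each ungapped eight-base word, pooled with its reverse complement, an E-score, a modified Wilcoxon-Mann-Whitney statistic.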

Sequence of UniProt P0CE41 (P0CE41 whole entry): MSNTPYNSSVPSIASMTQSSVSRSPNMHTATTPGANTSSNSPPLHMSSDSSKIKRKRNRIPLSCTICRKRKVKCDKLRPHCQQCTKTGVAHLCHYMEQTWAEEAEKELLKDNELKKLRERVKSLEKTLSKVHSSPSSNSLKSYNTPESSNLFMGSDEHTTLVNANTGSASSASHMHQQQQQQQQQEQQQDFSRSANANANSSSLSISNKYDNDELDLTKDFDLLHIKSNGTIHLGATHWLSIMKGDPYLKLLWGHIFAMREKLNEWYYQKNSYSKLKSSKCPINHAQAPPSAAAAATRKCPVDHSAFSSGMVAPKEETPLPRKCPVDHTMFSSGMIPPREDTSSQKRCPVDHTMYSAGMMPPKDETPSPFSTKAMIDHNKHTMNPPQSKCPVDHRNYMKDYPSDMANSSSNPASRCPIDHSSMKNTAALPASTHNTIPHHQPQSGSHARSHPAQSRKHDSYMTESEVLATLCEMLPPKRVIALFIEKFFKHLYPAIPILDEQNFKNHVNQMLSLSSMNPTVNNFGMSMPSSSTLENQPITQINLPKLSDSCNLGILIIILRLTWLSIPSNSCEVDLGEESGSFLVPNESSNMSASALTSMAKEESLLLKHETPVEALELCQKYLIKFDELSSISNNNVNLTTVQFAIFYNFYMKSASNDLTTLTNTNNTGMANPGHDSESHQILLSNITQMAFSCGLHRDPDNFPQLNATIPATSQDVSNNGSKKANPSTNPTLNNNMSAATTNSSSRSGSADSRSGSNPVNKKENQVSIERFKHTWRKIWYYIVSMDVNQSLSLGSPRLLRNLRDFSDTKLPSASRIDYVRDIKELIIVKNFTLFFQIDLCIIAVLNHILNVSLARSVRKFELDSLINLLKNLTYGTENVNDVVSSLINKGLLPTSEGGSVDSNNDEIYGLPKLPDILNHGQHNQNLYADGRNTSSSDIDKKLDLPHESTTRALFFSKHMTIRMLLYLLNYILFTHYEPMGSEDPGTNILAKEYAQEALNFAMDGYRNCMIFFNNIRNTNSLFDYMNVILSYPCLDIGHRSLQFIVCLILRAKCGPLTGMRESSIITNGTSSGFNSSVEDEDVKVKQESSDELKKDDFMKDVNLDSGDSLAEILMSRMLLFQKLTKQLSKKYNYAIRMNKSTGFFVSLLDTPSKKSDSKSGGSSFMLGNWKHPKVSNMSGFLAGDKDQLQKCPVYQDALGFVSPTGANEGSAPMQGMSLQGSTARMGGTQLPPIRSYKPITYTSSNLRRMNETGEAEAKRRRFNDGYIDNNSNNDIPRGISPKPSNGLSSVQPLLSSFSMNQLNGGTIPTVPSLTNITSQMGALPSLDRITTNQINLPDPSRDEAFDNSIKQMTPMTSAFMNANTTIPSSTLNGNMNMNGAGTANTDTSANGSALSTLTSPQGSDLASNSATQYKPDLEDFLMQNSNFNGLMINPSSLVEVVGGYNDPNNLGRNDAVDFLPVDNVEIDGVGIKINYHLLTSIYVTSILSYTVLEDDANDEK

Point of comparison: CCCCTACG, “PBM E-score” value -0.145. Against it:
- GTAGGCAA — lower, -0.267
- AGAGGCTA — lower, -0.256
- ACGTCGTG — higher, -0.141
- CCCCACAG — lower, -0.3
- GATCTACC — higher, -0.0369
- ATTGCTGG — lower, -0.186
- ACGTCTTG — lower, -0.203
- CTATGGAC — higher, -0.00574
- TATCCACA — lower, -0.16
- AGTTTCCA — higher, -0.133
- CTGGCTAC — lower, -0.182
- CGGGCTGC — higher, 0.156
- GATTTATA — higher, 0.146
- AACCCTGC — lower, -0.165
- ACAATCCT — higher, -0.141
- CACATATG — lower, -0.336
- ATGTGTCA — lower, -0.244
- CGTAGCTA — higher, -0.112
- AATAATCC — higher, 0.164
- GTACCTAA — lower, -0.248
- ACCCGCCC — higher, 0.191
- AACTCTGG — lower, -0.202
- GAGTATGA — higher, 0.151
- ACTATTGA — higher, -0.0546
- TCCGATAA — higher, 0.45
- AGTGGATA — higher, -0.0193
- GACGGATA — higher, 0.223
- ATCGCTTA — higher, -0.0437
- CGGGGGAG — higher, 0.256
- TGCACTAA — higher, -0.0422
- AGATTCGG — higher, 0.31
- AGCACATC — higher, 0.0396
- CCAGCTTC — lower, -0.166
- CGCACTAC — higher, 0.0586
- CACGGTAG — higher, -0.0323
- ACCACTTG — lower, -0.262
- CAAGGATA — higher, -0.115
- GTCGTTAA — higher, 0.0118
- CCCAAAAC — lower, -0.161
- AGCCCCTC — lower, -0.208
- CACTAGTG — lower, -0.215
- CATTATGA — lower, -0.202
- AGACGGGG — higher, 0.119
- CTGAATAA — higher, -0.139
- TAATTATA — higher, 0.148
- GGCGAAGA — higher, 0.0827
- ACCAAGGA — higher, -0.0951
- ATCGGGGC — higher, 0.308
- AATAGACT — lower, -0.163
- ACTCTCCC — higher, 0.189
- ATAACCCC — higher, 0.244
- CAGTACTA — lower, -0.208
- CCGTGTAC — higher, 0.094
- CTTCCATC — higher, -0.0451
- CGACCAGA — higher, 0.0439
- GATCTTGC — higher, 0.103
- ATCAGTTG — lower, -0.252
- ATCGCACG — higher, -0.0952
- TCGGCAAA — higher, 0.168
- GAGCGATC — higher, 0.0915
- AAGCGCGA — higher, 0.101
- GACATAGC — higher, 0.0141
- AAGTAGAA — lower, -0.218
- ACAAGACC — higher, -0.0664
- ACCAGGAG — higher, 0.0524
- CGAAATAG — higher, 0.137
- CTCGAAGC — higher, -0.12
- CTCATAAG — the same, -0.145
- TCTGCGCA — higher, -0.0847
- AGAGGTAC — higher, -0.115
- GACGAAGC — higher, -0.0487
- GGAACGAC — lower, -0.188
- CATCCCCC — higher, 0.0864
- CGTCCGAC — higher, 0.302
- ATATAGTA — lower, -0.156
- GCCGCGAA — higher, 0.15
- CTAATAGA — higher, -0.0855
- ACATGAGT — lower, -0.184
- ACTTGAGC — lower, -0.261
- GATTTTAC — higher, 0.0282
- AATTCCTC — higher, -0.00391
- CCTATATC — higher, 0.00156
- GTCGTGGA — higher, -0.0505
- AATGACTC — lower, -0.24
- GTAACTAA — higher, 0.0966
- CGGGTGCA — higher, 0.224
- CAATGGCC — higher, -0.00636
- CAGTGGGC — higher, -0.136
- GACATCAC — higher, 0.0762
- CCCCTGCA — lower, -0.218
- CTAGGCAA — higher, -0.128
- ATACATTC — lower, -0.19
- GACTTGCC — lower, -0.148
- AATGACAG — lower, -0.303
- ACAAGAGA — higher, -0.0005
- CTCTGTCC — higher, 0.00047
- CATCACGA — lower, -0.398
- CATATTGA — lower, -0.355
- AGCCCGGA — higher, 0.39
- CAAACGCA — lower, -0.209
- CATTGGAG — higher, -0.0139
- CATCTAAC — higher, -0.0126
- CGGTGCTA — higher, 0.323
- CCATGTCC — higher, 0.0819
- CTGGGTCC — higher, -0.0646
- AATGTCGT — higher, -0.133
- GGCCGCAA — higher, 0.175
- CGAACGTA — higher, -0.0484
- ACGGACCC — higher, 0.278
- AGAGACAC — higher, -0.123
- ACGTAAAT — higher, -0.00539
- GCGAACCC — higher, 0.107
- AGAAAACT — lower, -0.283
- CGTTAGAA — higher, 0.032
- ACTTCCTA — higher, -0.127
- ACACTAAA — higher, -0.0992
- AGCGCGTC — lower, -0.168
- GCAGCACC — higher, -0.0891
- ATATAGGC — higher, 0.144
- ACCGAAAA — higher, 0.26
- CAACAAGC — higher, -0.11
- AACCTTAA — higher, 0.139
- GGGGCTAA — higher, 0.154
- GGGTGCTA — higher, -0.0463
- TGATTTAA — higher, 0.0921
- AAAGTCTC — higher, -0.119
- GCAATTGC — higher, -0.0502
- ACAGCGAG — higher, -0.0158
- CCACGTGA — higher, -0.141
- TCTGAGCA — lower, -0.181
- ACCCTATC — higher, -0.0105
- GAGACGTA — higher, -0.0894
- ATTTGGAG — higher, -0.114
- ACATTAAA — higher, -0.138
- CCTGTATA — higher, -0.0951
- CGTACTCC — higher, 0.131
- CCTATTTC — higher, 0.0752
- ACCGATCG — higher, 0.256
- AGTCATAT — higher, -0.0572
- CGACAGGA — higher, 0.217
- AAGCTTAG — lower, -0.214
- ACACTACC — lower, -0.159
- TACCTCCA — lower, -0.176
- AGTGCTAA — higher, 0.0956
- GTCAGCCA — lower, -0.237
- AGGGATTG — higher, -0.114
- GCGCGGTA — higher, 0.21
- CAACCCTG — lower, -0.208
- ACCTACGT — higher, 0.00887
- GGGACTTA — higher, 0.0397
- CTACGAAG — lower, -0.337
- ATCGCACA — higher, -0.0777
- GCGCATGA — lower, -0.162
- CATGCACA — lower, -0.199
- AACGTGGG — lower, -0.199
- CCTCTCGA — lower, -0.281
- ATGCTCTG — lower, -0.198
- AGCATCCG — higher, 0.215
- CAATGTTC — higher, 0.0787
- GGATTGTA — higher, 0.0837
- ACGGCGCC — higher, 0.13
- CATCTGGA — higher, 0.151
- CCGGCGTA — higher, 0.315
- GATTTTTA — higher, 0.088
- CCTTCGAG — higher, 0.00318
- AACGTGCA — lower, -0.213
- GATAGCCC — higher, 0.0238
- AGCACTAG — lower, -0.2
- GTTCATCA — lower, -0.151
- CTGATATA — higher, -0.00394
- GCAGATAC — higher, 0.029
